From article PMC10726135 come the findings set out here.

The other results are listed elsewhere or left out. At the low end of the ranking the order means little. The protein was read in a cell extract, so binding may be indirect.

For this assay, the target named is T1, HNF4alpha2 (COS-7 nuclear extract) (UniProt P41235).
T1 sequence: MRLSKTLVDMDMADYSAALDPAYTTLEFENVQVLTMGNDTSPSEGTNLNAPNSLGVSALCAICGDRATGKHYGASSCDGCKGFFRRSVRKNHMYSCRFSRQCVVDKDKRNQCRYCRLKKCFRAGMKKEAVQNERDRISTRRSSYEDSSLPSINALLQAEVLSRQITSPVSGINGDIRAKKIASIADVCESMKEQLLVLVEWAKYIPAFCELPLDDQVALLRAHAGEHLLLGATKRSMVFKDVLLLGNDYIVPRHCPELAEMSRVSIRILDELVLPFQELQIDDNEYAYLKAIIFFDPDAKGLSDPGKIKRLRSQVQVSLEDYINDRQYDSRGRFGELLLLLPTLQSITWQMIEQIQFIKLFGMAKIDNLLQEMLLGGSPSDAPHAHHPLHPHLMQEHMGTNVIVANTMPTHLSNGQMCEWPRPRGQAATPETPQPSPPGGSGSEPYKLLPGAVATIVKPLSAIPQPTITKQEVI
The assay can be described thus: protein-binding microarray. The settings on record: COS-7 nuclear extract on double-stranded Agilent 4x180k PBM; binding buffer, salt, pH and temperature not given; high values mean tight binding; double strand, one strand shown; sequences stand for … in …GCCTAGGGAGATTAGAGTATCGGTCGA
Take CAGATGAAAGGCGGCAACTTCTTCAGCCTA: the binding signal (log2 normalized intensity) is -1.2. The value for TTCAGCAAACAAAGGCACTTCTCTCTCCAA was -0.92. The value for CACTTGCTATTTGCATCAGCAGAGGACAGA was 0.684. The value for GCTGAGGAAGACTTCATTCAGGTAGCAGGC was -1.12; that for GCGCTGCTCGCAAGCAGAACCTTGGAGGCG was -0.94; that for TGGCCTGATTTGACAAGGCAGAGGTGATTT was 0.51. On to CTTTGATCAGCAATGGAGAGTGATCAGATA, for which the binding signal (log2 normalized intensity) was determined as 0.44. Consider CCCTCTGACCAGAGACATTCCAACCCTGCC, for which the binding signal (log2 normalized intensity) is -0.84.

For the sequence CAAACCCAGTTTGCATTTTCATGGACAGAG, the binding signal (log2 normalized intensity) was 1.05. As to GCTGTTTTCTCCAGTGCCCTTAGGGGCCGC, the binding signal (log2 normalized intensity) is 0.843.

Regarding TCCTTCCCCTTTTGTGTTTGTCCCTTTCTT, the binding signal (log2 normalized intensity) stood at 2.62. As for GGTTCTCAGACCACCAGCTGCTTCGGCCAG, the figure is -1.12. For the sequence CGCCCCCCAGCGGAAGTCCAGTGGTGTCTT, the binding signal (log2 normalized intensity) came out at 3.33. Take GGATGGATCAAAGGAAACTGCTTGGGCCCC: the binding signal (log2 normalized intensity) is -1.18. The value for TAGGGCTCGGCATTCAGACAGACCCAGGGG was -1.14; that for GCAGAAGCAGGCCTCGGGCCTGCGAGGTTA was -1.13; that for TGAAGCCATCCTCCCACCTCAGCCTCTTGA was 1.73.

As to GTTTAACTGACCCAGGGAGAAAGGTCAGGG, the binding signal (log2 normalized intensity) amounted to 2.86.

Turning to CTTGTGTAATAACGAGACCTTAGCCCTGAA, the binding signal (log2 normalized intensity) was -0.833. With CAACCGTCCAGAGTCCACGTACTTAACTAC, the binding signal (log2 normalized intensity) turned out to be 1.51. Turning to CCTTGGGTCTGTAATCTCACAACTCAGAAG, the binding signal (log2 normalized intensity) was found to be 0.23. The value for TCTGGGCAAAGTTCACCAGGAAGCAAGACA was 3.23. For the sequence TTGTACTCAGTATGTGCTGACTGACTCCTG, the binding signal (log2 normalized intensity) turned out to be 0.992. As for AATTTCAGTATTAATGTCAAACTGATCAGA, the figure is 1.85. The value for TCCTGATCCCTGAGGTCGGGGCCTGGTCTG was 0.683; that for TATCTCCTATGAGCCAAACACCATGCTAGG was -1.12; that for AAAGGGAGCATATGTATGTCAGAGTATGTG was 1.54. As to GGACCCGCGCAGCCAATAGGCGAGGACGCA, the binding signal (log2 normalized intensity) is -1.09. The value for CCCATCCAAAGGTCAGCAATCTCAAAGACT was 2.36. Take TTATTTGAACACAGTTCGAACAGTTGGCCA: the binding signal (log2 normalized intensity) was found to be 1.5. As for AGGCCTGAAATTTGGCCTGCTGAGCCCAAT, the figure is -1.15; as for AACCTTTGCCCCTGGAGGGAGACATTATCT, 4.27. As to CAACTCAACCCTGGCATAGCATGCCACGAT, the binding signal (log2 normalized intensity) is -1.

As to AATGGAGCAAAGGTCATCCTGGGCTACCGA, the binding signal (log2 normalized intensity) was found to be 4.68. Turning to CCAGTCCAGATATAGGGGAGGTCCTAAAGA, the binding signal (log2 normalized intensity) is -1.06. The value for TCTGCAAGTGAAAAAAATCCTTTTATTTAT was 0.141. GAAAAGGGAGTAAAGGTCACGCAGGCCACC: the binding signal (log2 normalized intensity) is 3.5. As for GCTCTTGGCTAAGACAGGGGCTATTTCTGA, the binding signal (log2 normalized intensity) is -1.16. As for TGGCAAGGCAGCCTCAGCCACACGCCCATC, the binding signal (log2 normalized intensity) was -1.09.

As to CCTATGTCCCCCGACCCGCCCGACTACAAC, the binding signal (log2 normalized intensity) came out at 5.15. The value for AAAGAGCAGATGTGTCTTTATAACAGACTG was -0.299; that for GCAAACCAGATAAGACTATCTCATGACAGA was -1.14.

Consider TCCCACTCCCCTCCTCCAGATGGGCTCATG, for which the binding signal (log2 normalized intensity) is 3.86. The value for CTTATTTATCTTCACATTCCATCATCACGG was 1.29; that for TTTCTCTTATAGCTCAACCCCCAAAACTGC was 4.75; that for ACAACATACCACAATAAAGTATACAAGGGA was -1.05.

GGCGCCGCTCTGAGTGACCTTTCACCCGCG: the binding signal (log2 normalized intensity) was 6.81. As for CTTGAAGCAGAAAACCACTGTGCTCTGAAA, the figure is -1.17; as for CCTTCAAGTCTGAGATGAAGAGGCCAGGGG, -1.11; as for CTCTACCGTCCTCCCCCACGACAGAATTGA, 4.57. The value for AGTTGTTTGCAGAGGGAAAGCGAGAGAGCC was -0.96; that for AAAGATTGCAGCAAGGAATTCAACCCTTGT was 1.23. With AGAAGCAAATGAAAAGAATATCTCAGCAGC, the binding signal (log2 normalized intensity) is -1.24. The value for GTGAAGGTCACAATTTCCAGGAGTATGTGT was 1.5.

For the sequence CTCCCACCTCAGCCTCTTGAGTAGCTGGGA, the binding signal (log2 normalized intensity) is -1.17. The value for TTTTCAATCTTATTTTTACTATGTGGCATT was 1.8; that for AGTTGGTGTTTTCCGGGGGCGGTTTTTCCA was 1.42.

Consider AACAACTGCCACTTATTGTGTTATGTACTT, for which the binding signal (log2 normalized intensity) was found to be 1.57. For CCCTTCGCTAGAGCAAATACAGCACTCAAA, the binding signal (log2 normalized intensity) was -1.22.

For AAAAAATGGGCAAAGGACAATAATGAATAA, the binding signal (log2 normalized intensity) was -1.04. Turning to AGCAGGTTATCTAATGGAGAGGATGGGGAC, the binding signal (log2 normalized intensity) was -1.13. As for GGGGGAGGGAGATAGAGAAAGAAAAAGTAC, the figure is -0.948; as for CTGCATTCCAGCTCAATCAAGGACTGGGCT, -0.876; as for GAAAAGAAAAAACCCATCCACCCATCCAAA, 2.69. Turning to GAGTTTAAGGTTGTACTTTGGAGTTTACTT, the binding signal (log2 normalized intensity) is 3.85.

ATACTCCAAGCCTAGAAAAACAACTAAAGG: the binding signal (log2 normalized intensity) is -1.16. As for ATCGGCTTCCCTGGTCCTCAGGCCTTTGGA, the figure is 1.26. Regarding CCCTACGTAAATGCACGGAAGCCTTCCCCG, the binding signal (log2 normalized intensity) was -1.13. For the sequence AACCTTTGATCATTCCTGCACAGGACTGCT, the binding signal (log2 normalized intensity) came out at 2.81. TCACCCGATAAGCTGACCCCAAAACCCCCA: the binding signal (log2 normalized intensity) was 5.75. As for ACACAAAGGCAGAGCACTAAATCTCTCCTA, the figure is -1.22; as for TAAAACTAGGAGAGTCCGGGGCAAACAAGG, -0.999.
